Measured values taken from PubChem BioAssay AID1508623 (National Center for Advancing Translational Sciences (NCATS), 2021).
Screen size: about 48,000 compounds; about 450 (0.94%) were called active. About 19% were inconclusive and are not listed. Calls come from the whole dose curve; as a rule, active = well fitted inhibition curve with a large enough effect; inconclusive = small, poorly fitted or top-dose-only effect; inactive = no such curve, though single readings can be large or run the other way. Some of the results follow.

Assay: Primary qHTS for Identification of Small Molecule Inhibitors of Huntingtin Promoter Activity; note: nearly all actives have a fitted effect of over 50% in size
Settings: HEK293 HTT promoter firefly luciferase reporter (activity 0% = vehicle and -100% = no light), 24 h; series mostly up to 57.5 µM; activity change, negative = inhibition: at the top concentration
Summary of the method: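 Luminescence was read after Dual-Glo reagent and a 10 min room-temperature incubation. Values were normalized to vehicle (0% activity) and zero RLU (-100% activity). Reporter HEK293 cells had been exposed to compounds (up to 57.5 uM final) for 24 h.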

Activity change, negative = inhibition, inactive:
Cc1ccccc1OCC(=O)Nc1ccc(C(=O)OCc2cc(=O)n3ccsc3n2)cc1 -8.1%, Cc1ccccc1NC(=O)c1nc(S(C)(=O)=O)ncc1N(Cc1ccco1)Cc1sccc1C -26.4%, CCN(C(=O)CCc1nc(-c2ccc(C)cc2)no1)c1cccc(Cl)c1 -23.4%, COc1cc2c(cc1OC)C(COc1ccc3c(C)cc(=O)oc3c1)N(C(=O)Cc1ccccc1)CC2 (stereo unspecified) -15.7%, COC(=O)c1cc2sccc2n1CC(=O)Nc1ccc(C)cc1C -14.4%, Cc1cc(C)c(Cn2c3ccccc3c3cnn(CC(=O)NCCC4=CCCCC4)c(=O)c32)c(C)c1 -12.9%, COc1cccc(CNC(=O)c2ccc3nc(-c4ccccc4)c(-c4ccccc4)nc3c2)c1OC -14.8%, CCOc1ccccc1C(=O)NC1(C(F)(F)F)C(=O)Nc2c1c(=O)[nH]c(=O)n2-c1ccccc1 (stereo unspecified) -13.6%, Cc1ccc(S(=O)(=O)c2cn(Cc3ccccc3)c3cc(N4CCCC4)c(F)cc3c2=O)cc1 -0.475%, Cc1ccc(NC(=O)Cn2nnc(C(=O)NCCc3ccccc3)c2N)cc1 -0.643%, Clc1ccc(-c2csc(-c3nc(-c4ccc(Br)s4)cs3)n2)cc1 -5.91%, Cc1ccc(NC(=O)c2c(C)nc3sc(C(=O)Nc4ccc(F)cc4)c(N)c3c2-c2ccc(Cl)cc2)c(C)c1 -20.1%, COc1cccc(NC(=O)CCc2nnc3n(Cc4ccccc4Cl)c(=O)c4ccccc4n23)c1 -0.0673%, CCOC(=O)C(O)c1ccccc1 (stereo unspecified) 2.82%, Cc1ccc(Nc2c(-c3ccc(N4CCOCC4)cc3)nc3cccc(C)n23)cc1 11.1%, O=C1CC(c2nnc(Cc3c(F)cccc3Cl)o2)CN1c1ccccc1 (stereo unspecified) -19.5%, CCOC(=O)c1ccc(NC2(c3ccccc3)C(=O)c3ccccc3C2=O)cc1 1.03%, CCOC(=O)c1ccc(NC(=O)c2sc3ccccc3c2Cl)cc1 56.4%, COc1ccccc1C(=O)Nc1nnc(S(=O)(=O)N2CCN(c3ccc(F)cc3)CC2)s1 -21.7%, Cc1ccc(-c2nnc3ccccc3c2C(=O)Nc2ccc(C)c(F)c2)cc1 31.5%, CCc1nnc(SCc2nc(-c3cccc(Cl)c3)oc2C)c2cc3sc(C)cc3n12 7.13%, COc1cc(OC)c(NS(=O)(=O)c2cc3c(cc2C)N(C(C)=O)CCO3)cc1Cl -6.21%, COc1ccccc1NC(=O)CN(c1cc(C)cc(C)c1)S(=O)(=O)c1c(C)[nH]c(=O)[nH]c1=O -9.33%, NC(=O)c1c(NC(=O)c2cc(-c3ccc(F)cc3)on2)sc2c1CCCC2 -1.53%, Cc1cccc(NC(=O)Cn2nnc(C(=O)NCc3cccs3)c2N)c1 -8.29%, CCC(C(=O)Nc1ccc(C(C)C)cc1)n1nc(C)n2c(cc3cc(C)ccc32)c1=O (stereo unspecified) -3.59%, COc1ccc(Cl)cc1NC(=O)CCn1c(=O)c2cccn2c2ccccc21 -13.8%, Cc1ccc(C)c(Cn2c(=O)cc(C(F)(F)F)c3c(C)nn(C)c32)c1 -12.9%, CCOc1ccc2oc(=O)cc(CN3CCN(Cc4ccc(C)cc4)CC3)c2c1 -12.5%, Cc1ccc(Nc2c3c(nc4nc(-c5cccs5)nn24)CCCC3)cc1F -23%, Cc1oc(-c2ccc(Cl)cc2)nc1CS(=O)CC(=O)NCCc1ccccc1 (stereo unspecified) -21.3%, CCN(CC)CC(=O)OCC(=O)[C@@]1(O)CC[C@H]2[C@@H]3CCC4=CC(=O)CC[C@]4(C)[C@H]3[C@@H](O)C[C@@]21C -4.68%, COc1ccccc1OCC(=O)N(Cc1cccs1)C1CCS(=O)(=O)C1 (stereo unspecified) -16.1%, CCOC(=O)Cn1nc(C)c(NC(=O)COc2ccccc2)c1C -4.87%, COc1ccc(S(=O)(=O)NC(C)(C)C)cc1-c1nnc2c3ccccc3c(C)nn12 0.417%, COc1ccccc1CNc1nc(-c2ccco2)nn1S(C)(=O)=O 26.2%, COc1ccc(-n2cc(-c3ccccc3)nc2SCC(=O)Nc2ccccc2C)cc1 -24.2%, Cc1ccc(CNc2nc3ccc(Cl)cc3n3nnnc23)cc1 9.12%, COc1cc(NC(=O)CCn2c(=O)oc3ccccc32)cc(OC)c1OC -8.79%, Cc1cc(-c2ccc(C)c(S(=O)(=O)Nc3ccccn3)c2)on1 -20.9%, COc1cc(OC)c(NS(=O)(=O)c2c(C(=O)N3CCCCCC3)c(C)n(C)c2C)cc1Cl -1.49%, CSc1ccc(NC(=O)C2CCN(c3ncccn3)CC2)cc1 17%, CCN1CCN(c2ncc3c(n2)CCN(CC(C)C)C3)CC1 -15.1%, COc1ccc(Br)cc1CNC(=O)c1ccc2nc(C(C)C)oc2c1 -23.7%, COc1ccccc1CNC(=O)CCCCn1c(=O)c2ccccc2n(CC(=O)Nc2c(C)cc(C)cc2C)c1=O 21.5%, COc1ccccc1Cc1nc2ccccc2nc1SCC(=O)Nc1ccc2c(c1)OCO2 -4.99%, CC(=O)[C@]1(O)Cc2c(O)c3c(c(O)c2[C@@H](O[C@H]2C[C@H](N)[C@H](O)[C@H](C)O2)C1)C(=O)c1ccccc1C3=O -40%, Cc1ccc(NC(=O)CN2C(=O)C(c3ccc(C(C)(C)C)cc3)=NC2(C)C)cc1 -28.9%, CCCN(CCC)C(=O)CSc1c2c(nc3ccc(Cl)cc13)CCCC2 -16.2%, O=[N+]([O-])c1cc(-c2nc(-c3ccccc3)no2)ccc1NCc1cccnc1 -23.4%, CN1C(CSCC(F)(F)F)Nc2cc(Cl)c(S(N)(=O)=O)cc2S1(=O)=O (stereo unspecified) -5.24%, Cc1cc(C)cc(-n2c(SCC(=O)Nc3cccc(F)c3)nc3c([nH]c4ccccc43)c2=O)c1 -20.2%, Cc1ccc(C)c(NC(=O)C(Cc2ccccc2)n2cccc2)c1 (stereo unspecified) -18.9%, Cc1ccc(C(=O)Nc2ccc(-c3nc4ccccc4o3)cc2)cc1Cl 28.5%, COCCNc1nc2c(c(=O)n(Cc3cccc(Cl)c3)c(=O)n2C)n1C -3.9%, COc1ccc2c(c1)c1c(c(=O)n(Cc3ccccc3)c(=O)n1Cc1ccccc1Cl)n2C -15.2%, COc1ccc(OCC(=O)Nc2c(C(=O)N3CCN(c4ccccc4)CC3)oc3ccccc23)cc1 -11.5%, CCc1ccc(NC(=O)C2=C(C)C(=O)OC23CCCCC3)cc1 -13.6%, CCOC(=O)c1c(-c2ccc(OC)c(OC)c2)csc1NC(=O)c1ccc(C)cc1 -0.722%, O=C(O)c1cccc(NC(=O)c2cc3cc(Br)cc(Br)c3oc2=O)c1 11.5%, O=C(NCc1ccc(F)cc1)c1cc2cccc3c2n1CCS3 -29.1%, COC(=O)c1ccc(NC(=O)C(=O)NCC(c2cccnc2)N2CCN(c3ccccc3)CC2)cc1 (stereo unspecified) -24.4%, Cc1ccc(NC(=O)c2cnc3cc(C)ccn3c2=O)c(C)c1 58%, COc1c2occc2c(OC)c2c(=O)cc(C)oc12 4.89%, CCCCSc1nc(-c2cccc(OC)c2)nc2c1Cc1c(CO)cnc(C)c1O2 -8.89%, CC1(C)S[C@@H]2[C@H](NC(=O)Cc3ccccc3)C(=O)N2[C@H]1C(=O)O (tested in a mixture with another compound) -3.06%, CC(C)C[C@H](NC(=O)CNC(=O)[C@H](Cc1ccc(O)cc1)NC(=O)[C@H](CO)NC(=O)[C@H](Cc1c[nH]c2ccccc12)NC(=O)[C@H](Cc1cnc[nH]1)NC(=O)[C@@H]1CCC(=O)N1)C(=O)N[C@@H](CCCN=C(N)N)C(=O)N1CCC[C@H]1C(=O)NCC(N)=O (stereo in doubt) 11%, CC1CCCCN1C(=O)CN1CCSc2ccccc21 (stereo unspecified) -19%, CCC(=O)Nc1ccc(CC)cc1-c1nc2ccccc2n(CC(=O)c2ccc(OC)cc2)c1=O -0.761%, Cc1ccc(-c2cc(NC(=O)c3cccc(C)c3)on2)cc1 28.4%, CCc1nonc1NC(=O)c1oc2cc(C)c(C)cc2c1C 38.5%, O=S(=O)(NCc1ccc(F)cc1)c1ccc2[nH]c3c(c2c1)CCCC3 -12.8%, COc1ccc(C(=O)Oc2ccc(C(c3c(C)[nH][nH]c3=O)c3c(C)[nH][nH]c3=O)cc2)cc1 -6.65% [at 11.5 µM], COc1ccc(NC(=O)C2Cc3ccccc3CN2S(=O)(=O)c2ccccc2)cc1OC (stereo unspecified) -13.7%, CCc1ccccc1NC(=O)CCCn1c(=O)c2cccn2c2ccccc21 -4.74%, COc1cccc(-n2c(SCC(N)=O)nc3c(oc4ccccc43)c2=O)c1 -21.3%, Cc1cc(S(=O)(=O)Nc2ccc3oc4c(c3c2)CCCC4)ccc1Cl 7.45% [at 11.5 µM], CCCc1nn2c(=O)cc(COC(=O)c3ccc(NC(=O)COc4ccccc4F)cc3)nc2s1 -16.3%, CCOc1ccc(CCNCc2c(C(=O)O)c(C)n(Cc3ccccc3F)c2C)cc1 -12.4%, Cc1ccc(S(=O)(=O)N2CCc3cc(C(=O)Nc4ccc(Cl)cc4C)ccc32)cc1 -7.1%, CCOc1ccc(NC(=O)[C@@H](c2ccccc2)N2Cc3ccccc3C2=O)cc1 -10%, COc1ccc(NS(=O)(=O)c2ccc3c(c2)[C@H]2C=CC[C@H]2[C@@H](c2ccc(C(=O)O)cc2)N3)cc1 -2.86%, Cc1noc(-c2ccc(-c3noc(-c4ccc([N+](=O)[O-])c(C)c4)n3)cc2)n1 -7.29% [at 11.5 µM], CCN(CC)c1ccc(NC(=O)CCc2c(C)nc3ncnn3c2C)c(C)c1 -12.9%, Cc1cccn2c(=O)c(C(=O)N3CCN(c4ccc(Cl)cc4)CC3)cnc12 0.442%, CCOC(=O)c1cc2c(=O)n3ccccc3nc2n(Cc2ccco2)c1=NC(=O)c1cccc(Br)c1 -24.8%, Cc1ccc(-n2nnnc2CNC(=O)C2CC(=O)N(c3ccccc3)C2)cc1C (stereo unspecified) 1.39%, COc1ccc(Cl)cc1NC(=O)Cn1nnc2sc(-c3ccccc3)cc2c1=O 3.46%, Fc1ccccc1N1CCN(c2ncnc3c2nc2n3CCCC2)CC1 -13.7%, COc1ccc(CCNC(=O)CCCCn2c(=O)c3ccccc3n(Cc3ccccc3)c2=O)cc1OC -12.3%, CN(C)c1ccc(NC(=O)Cn2cc(S(=O)(=O)Cc3ccccc3Cl)c3ccccc32)cc1 -12.3%
